Sequences with one replicate were seen in a single cluster, so their values are uncertain.
These sequences were tested on ATP (assay: switch fluorescence ratio, 500 uM ATP over buffer (Cy3 cluster intensity, sum of 5 cycles each) (fold (ratio)); higher = stronger signal-on switching upon ATP binding; sequences stand for … in TCGTCGGCAGCGTCAGATGTGTATAAGAGACAGTTTTTTTTTTTTTTTTTTTTTTTTT…TC). Settings: aptamer strand: ATP DNA aptamer (quencher-CACCTGGGGGAGTATTGCGGAGGAAGG + anchor), 100 nM annealed; ATP concentration: 500 uM; one replicate.
Summary of the method: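 The fluorescence ratio divides summed target-cycle Cy3 intensity by summed buffer-cycle Cy3 intensity for each cluster and is averaged per switch-domain sequence. Cy3-labelled switching-strand clusters on a modified Illumina MiSeq flow-cell were annealed to 100 nM quencher-labelled ATP aptamer, then imaged in selection buffer and again after 15 min with 500 uM ATP at 22 °C. Five such cycles were run, with NaOH stripping and re-annealing between them, and clusters outside 100-1000 RFU were excluded.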
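Note: ATP exposure 15 min at 22 °C before imaging.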

Row | Sequence | switch fluorescence ratio
1 | TTGGCTGGGG | 0.965
2 | TTGGCTTGGA | 1
3 | TTGGGAAAAG | 0.965
4 | TTGGGACGTG | 0.945
5 | TTGGGAGCAG | 1.03
6 | TTGGGATAGC | 0.984
7 | TTGGGATC | 1
8 | TTGGGATGTC | 0.981
9 | TTGGGCTCCG | 1.22
10 | TTGGGGACAA | 1.07
11 | TTGGGTCGGT | 0.99
12 | TTGGTATAGA | 0.986
13 | TTGGTCGATG | 0.961
14 | TTGGTCGGCC | 0.957
15 | TTGGTGAGAA | 0.983
16 | TTGGTGCTAT | 0.958
17 | TTGTAACATG | 0.994
18 | TTGTAATAGC | 2.56
19 | TTGTACGGTA | 1.09
20 | TTGTAGACT | 1.03
21 | TTGTAGAGTA | 1.02
22 | TTGTAGGGG | 1.02
23 | TTGTATTGCG | 0.955
24 | TTGTATTTAT | 0.994
25 | TTGTCAGCGA | 1.04

Row | Sequence | switch fluorescence ratio
26 | TTGTCATAGT | 0.957
27 | TTGTCCAATG | 1.05
28 | TTGTCGACGT | 0.971
29 | TTGTCGAGGG | 0.945
30 | TTGTCGTAT | 0.988
31 | TTGTCTGAGA | 0.99
32 | TTGTCTTAAA | 1.02
33 | TTGTGACCCG | 1.09
34 | TTGTGATGG | 0.986
35 | TTGTGCGGCG | 1.01
36 | TTGTGCGTTA | 1.01
37 | TTGTGGAACC | 1.02
38 | TTGTGGGGAT | 0.982
39 | TTGTGTCCAG | 0.95
40 | TTGTGTCTAC | 0.981
41 | TTGTGTGAT | 1.02
42 | TTGTGTTCCT | 0.987
43 | TTGTGTTGAT | 1.06
44 | TTGTGTTGCT | 0.981
45 | TTGTTAAAAA | 0.992
46 | TTGTTAAGGA | 1.13
47 | TTGTTAGCTT | 1.03
48 | TTGTTCATC | 0.961
49 | TTGTTCTCGA | 1.02
50 | TTGTTGATAA | 0.915

Row | Sequence | switch fluorescence ratio
51 | TTGTTGGCA | 1.03
52 | TTGTTGGCAG | 1.04
53 | TTGTTTGCCC | 1.02
54 | TTTAAAACAC | 1.04
55 | TTTAAAGTCC | 1.01
56 | TTTAAATCAG | 0.991
57 | TTTAAATTAT | 0.994
58 | TTTAAATTCA | 1.03
59 | TTTAACGCTT | 1.03
60 | TTTAAGTATC | 0.981
61 | TTTAAGTTCA | 0.979
62 | TTTAATACAG | 0.966
63 | TTTAATAGGT | 0.991
64 | TTTAATTAAC | 1.01
65 | TTTACACACT | 1.32
66 | TTTACACGAC | 1.16
67 | TTTACAGCCG | 1.02
68 | TTTACATATA | 1.06
69 | TTTACATCAC | 1.45
70 | TTTACATCGG | 1
71 | TTTACATGTC | 1.01
72 | TTTACCAACA | 1.09
73 | TTTACCACAA | 1.06
74 | TTTACCAG | 1.05
75 | TTTACCCGCT | 1.28

Row | Sequence | switch fluorescence ratio
76 | TTTACCTCAG | 1.03
77 | TTTACGAAGG | 0.975
78 | TTTACTATCT | 1.02
79 | TTTACTCGTT | 1.04
80 | TTTACTGAAT | 1.01
81 | TTTACTGTGT | 0.93
82 | TTTACTTCAG | 1.01
83 | TTTACTTCAT | 1.07
84 | TTTAGAATTA | 1.02
85 | TTTAGAATTG | 1.01
86 | TTTAGACAAC | 1.01
87 | TTTAGACTGC | 0.948
88 | TTTAGATGAA | 0.97
89 | TTTAGCCC | 0.992
90 | TTTAGCCTTC | 1.14
91 | TTTAGGTACA | 0.993
92 | TTTAGTCTGG | 0.988
93 | TTTAGTTGGG | 1
94 | TTTATAGGTA | 1.06
95 | TTTATATCAC | 1.08
96 | TTTATCATGG | 0.98
97 | TTTATCGTAG | 1.03
98 | TTTATGAAGT | 1.19
99 | TTTATGACAG | 0.981
100 | TTTATGGGCT | 1.02
